The values below come from article PMC4336329 (PLoS ONE, 2015).

Among all 310,000 compounds or so, about 2,200 (0.71%) showed an effect of 50% or more. Effects have a minus sign here. Some of the results follow.

In the assay the target is human ether-à-go-go-related gene (hERG) potassium channel (human, UniProt Q12809). The experiment in a line: primary screen, population patch clamp on CHO cells stably expressing hERG.
Chain of human ether-à-go-go-related gene (hERG) potassium channel (Q12809 whole entry, looked up): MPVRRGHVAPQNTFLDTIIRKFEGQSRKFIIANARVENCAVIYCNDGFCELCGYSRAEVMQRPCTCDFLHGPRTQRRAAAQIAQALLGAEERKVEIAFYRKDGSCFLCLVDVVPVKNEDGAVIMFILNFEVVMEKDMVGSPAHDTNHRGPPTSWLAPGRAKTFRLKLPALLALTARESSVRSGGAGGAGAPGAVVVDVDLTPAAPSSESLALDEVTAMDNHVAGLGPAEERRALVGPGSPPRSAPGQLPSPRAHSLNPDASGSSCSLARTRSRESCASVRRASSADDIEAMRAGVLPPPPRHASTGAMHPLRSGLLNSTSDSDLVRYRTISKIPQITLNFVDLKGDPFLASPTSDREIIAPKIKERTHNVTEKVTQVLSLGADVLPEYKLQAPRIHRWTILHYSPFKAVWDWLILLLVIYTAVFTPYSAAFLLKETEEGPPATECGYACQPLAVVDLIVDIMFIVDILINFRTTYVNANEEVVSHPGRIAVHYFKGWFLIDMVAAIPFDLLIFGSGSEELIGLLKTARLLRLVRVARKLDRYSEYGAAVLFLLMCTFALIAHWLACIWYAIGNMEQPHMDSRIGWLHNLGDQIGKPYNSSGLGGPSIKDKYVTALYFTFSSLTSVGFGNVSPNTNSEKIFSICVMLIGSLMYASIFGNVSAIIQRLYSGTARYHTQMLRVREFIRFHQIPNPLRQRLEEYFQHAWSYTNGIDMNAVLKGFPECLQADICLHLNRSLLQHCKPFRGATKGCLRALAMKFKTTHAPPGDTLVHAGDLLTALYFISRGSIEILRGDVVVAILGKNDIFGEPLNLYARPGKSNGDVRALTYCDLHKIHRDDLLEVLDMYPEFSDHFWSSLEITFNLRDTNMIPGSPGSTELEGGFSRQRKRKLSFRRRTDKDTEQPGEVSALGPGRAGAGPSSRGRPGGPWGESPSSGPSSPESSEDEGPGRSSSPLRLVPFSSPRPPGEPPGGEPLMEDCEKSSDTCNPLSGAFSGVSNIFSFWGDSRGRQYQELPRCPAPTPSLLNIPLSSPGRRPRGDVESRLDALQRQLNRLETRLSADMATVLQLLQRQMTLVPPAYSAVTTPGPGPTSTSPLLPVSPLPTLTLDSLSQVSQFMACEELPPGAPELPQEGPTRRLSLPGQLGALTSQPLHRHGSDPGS
With `CN(Cc1ccccc1)C(=O)CN1C(=O)NC2(CCCCCCC2)C1=O`, the “hERG current change (%, negative = inhibition) at 1uM” value was found to be 0.564%. For the compound `O=C(Cn1ccc([N+](=O)[O-])n1)Nc1nccs1`, the “hERG current change (%, negative = inhibition) at 1uM” value is 0.0851%.

Take `Nc1nc(C(c2ccccc2)c2ccccc2)cs1`: the “hERG current change (%, negative = inhibition) at 1uM” value worked out at 6.86%. Turning to `CCn1cc(C(=O)NCCCN2CCN(C)CC2)c(=O)c2cc(S(=O)(=O)N3CCc4ccccc4C3)ccc21`, the “hERG current change (%, negative = inhibition) at 1uM” value is 8.75%. As for `CCOC(=O)[C@H]1[C@H]2COc3ccc(OC)cc3[C@@H]2N2C(=O)CN(Cc3ccc(F)cc3)C(=O)[C@@]12C`, the figure is 11.2%; as for `CC1(C)S/C(=N/N=C/c2ccco2)NC1=O`, 17.4%; as for `COc1ccc(-c2nnc(SCC(=O)NC3CCCCC3)o2)cc1OC`, 1.39%. As for `CC1CCN(C(=O)c2ccc(CSc3ccc(Cl)cc3)cc2)CC1`, the figure is -3.75%; as for `COc1ccc(CCN2C(=O)c3cccc4cccc(c34)C2=O)cc1OC`, 5.35%; as for `CCn1c(C)nc2cc(C(=O)NNC(=O)c3ccc(Cl)nc3)ccc21`, 24.1%.

On to `COc1cc(OC)c(OC)cc1CNC(=O)CCN1C(=O)c2cccc([N+](=O)[O-])c2C1=O`, for which the “hERG current change (%, negative = inhibition) at 1uM” value amounted to 10.3%. As for `Cc1nn(-c2ccccc2)c(C)c1/C=N/NC(=O)c1cc(O)cc(O)c1`, the figure is 8.52%; as for `Cc1cc(Nc2ccc(Br)cc2)nc2ccccc12`, 14%; as for `O=C(CSc1nnc2ccccn12)NNC(=O)c1cccc([N+](=O)[O-])c1`, -1.64%. Regarding `CCN(CC)C(=O)C1CCN(Cc2ccc(OCc3ccccc3)c(OC)c2)CC1.O=C(O)C(=O)O`, the “hERG current change (%, negative = inhibition) at 1uM” value is on record as -6.42%. For `COP(=O)(OC)C(NS(=O)(=O)c1ccccc1)C(Cl)(Cl)Cl` (stereo not drawn), the “hERG current change (%, negative = inhibition) at 1uM” value was determined as 13.2%. Regarding `N#C/C(C(=O)NCc1ccco1)=C1/SC=C(c2ccccc2)N1c1ccccc1`, the “hERG current change (%, negative = inhibition) at 1uM” value was found to be 17.1%. As for `CCC(C(=O)N1C[C@H]2C[C@@H](C1)c1cccc(=O)n1C2)c1ccccc1` (stereo partly drawn), the figure is 2.56%. In the case of `O=C(c1ccc(-n2cncn2)c([N+](=O)[O-])c1)N1CCN(c2cccc(Cl)c2)CC1`, the “hERG current change (%, negative = inhibition) at 1uM” value is reported as -15.4%. On to `O=C(CN1CCN(CC(=O)Nc2cccc(F)c2)CC1)NCC1(N2CCOCC2)CCCCC1`, for which the “hERG current change (%, negative = inhibition) at 1uM” value is 0.0709%. As to `COc1cccc2cc(C(=O)c3ccccc3)oc12`, the “hERG current change (%, negative = inhibition) at 1uM” value amounted to 7.53%. As to `CCC(C)NC(=S)Nc1ccc(F)cc1` (stereo not drawn), the “hERG current change (%, negative = inhibition) at 1uM” value was 8.14%. As for `CCN(CC)S(=O)(=O)c1ccc2c(c1)nc(CCC(=O)Nc1ccc(N3CCOCC3)cc1)n2C`, the figure is 15.6%; as for `COc1cccc(CN2CCN(C3CCOCC3)CC2CCO)c1` (stereo not drawn), 10.9%. For `CN1C(=S)SC(/[N+]([O-])=C\c2ccc(Cl)cc2)C1(C)C` (stereo not drawn), the “hERG current change (%, negative = inhibition) at 1uM” value is recorded as 9.19%.

Take `COc1ccc(C(=S)N2CCOCC2)cc1OC(=O)c1ccccc1`: the “hERG current change (%, negative = inhibition) at 1uM” value was 19.3%. `COC(=O)C1=C(c2ccc(F)cc2OCc2ccccc2)C[C@@H]2CC[C@H]1N2C(=O)NCc1ccc([N+](=O)[O-])cc1`: the “hERG current change (%, negative = inhibition) at 1uM” value is 0.735%.

Take `COc1ccc(CN(C(=S)Nc2ccccc2)C2CC(=O)N(c3ccc(Cl)cc3)C2=O)cc1` (stereo not drawn): the “hERG current change (%, negative = inhibition) at 1uM” value is reported as 2.41%. `CCn1cnc2cc(NC(=O)c3cccs3)ccc21`: the “hERG current change (%, negative = inhibition) at 1uM” value was determined as 8.67%. As for `CC1(c2ccc(Cl)cc2)NC(=O)N(CC(=O)N2CCc3ccccc3C2)C1=O` (stereo not drawn), the “hERG current change (%, negative = inhibition) at 1uM” value is reported as -0.91%. To `Cc1ccc(-c2c(C(=O)O)c3ccccc3[nH]c2=O)cc1` belongs 10.1%; to `CN(CC(=O)Nc1ccc(F)cc1)C(=O)C1CCCC1`, 7.47%. To `O=C(Nc1ccccc1N1CCOCC1)c1ccco1` belongs 13.5%; to `COc1ccc(Cc2nnc(NS(=O)(=O)c3ccc(NC(C)=O)cc3)s2)cc1`, 14.5%; to `O=C(Nc1nc(-c2ccc(F)c(F)c2)cs1)c1cnccn1`, 5.09%. As for `CC1(C)Cc2ccccc2C(N/N=C/c2ccc([N+](=O)[O-])cc2)=N1`, the “hERG current change (%, negative = inhibition) at 1uM” value is recorded as 12%. To `O=C1OC(/C=C/c2ccc(Cl)cc2)=NC/1=C/c1ccco1` belongs 5.9%; to `O=C(CCl)Nc1ccccc1C(=O)c1ccccc1`, 9.75%. `CC(Oc1ccc2c(-c3ccccc3)cc(=O)oc2c1)C(=O)NCCN1CCOCC1` (stereo not drawn): the “hERG current change (%, negative = inhibition) at 1uM” value is reported as 4.39%. `O=C(CC12CC3CC(CC(C3)C1)C2)NCC(=O)N1CCc2ccccc2C1`: the “hERG current change (%, negative = inhibition) at 1uM” value is reported as 2.11%. Consider `CCO[C@@H]1OC(C(=O)N2CCN(Cc3ccccc3)CC2)=C[C@H](C2CC2)[C@H]1CCCO`, for which the “hERG current change (%, negative = inhibition) at 1uM” value is recorded as 2.43%. Regarding `Nc1nc(N)c(N=Nc2ccc(S(N)(=O)=O)cc2)c(=O)[nH]1`, the “hERG current change (%, negative = inhibition) at 1uM” value was 13.1%.

For `CC(/C=N\NC(=O)c1ccc(C)nc1)=C\c1ccccc1`, the “hERG current change (%, negative = inhibition) at 1uM” value is recorded as 19.6%.

As for `O=C(NC(=S)Nc1ccccc1N1CCCC1)c1ccc([N+](=O)[O-])cc1`, the “hERG current change (%, negative = inhibition) at 1uM” value was 15.4%. As for `COc1ccc(CSc2nnc(Cc3sc(-c4ccccc4)nc3-c3ccccc3)o2)cc1`, the figure is 13.1%.

For `CCOC(=O)c1sc(N2C(=O)C(O)=C(C(=O)c3ccc(C)o3)C2c2cccc([N+](=O)[O-])c2)nc1C` (stereo not drawn), the “hERG current change (%, negative = inhibition) at 1uM” value turned out to be 14.6%. With `COc1ccc(N2CCN(C(=O)c3ccc4c(c3)[nH]c(=S)n3c5ccccc5nc43)CC2)cc1`, the “hERG current change (%, negative = inhibition) at 1uM” value is 10.2%.

`COc1ccc(C2C(C(=O)N3CCN(c4ccccn4)CC3)CCC(=O)N2c2cc(OC)c(OC)c(OC)c2)cc1` (stereo not drawn): the “hERG current change (%, negative = inhibition) at 1uM” value is 10%. Consider `Cc1[nH]nc(SCC(=O)NCc2ccc(Cl)cc2)c1[N+](=O)[O-]`, for which the “hERG current change (%, negative = inhibition) at 1uM” value was 12%. As for `CCOC(=O)c1ccc(N2C(=O)CC(Nc3ccc(O)cc3)C2=O)cc1` (stereo not drawn), the “hERG current change (%, negative = inhibition) at 1uM” value stood at 10.9%.

In the case of `COc1ccc(OC)c(S(=O)(=O)Nc2c(F)cccc2F)c1`, the “hERG current change (%, negative = inhibition) at 1uM” value is on record as 17.7%. With `Cl.Clc1cccc(Cl)c1CNC1CCCC1`, the “hERG current change (%, negative = inhibition) at 1uM” value was determined as 9.78%. `O=C(Nc1cc(F)ccc1F)c1cccc(-n2cnnn2)c1`: the “hERG current change (%, negative = inhibition) at 1uM” value is 8.01%. Take `CC(C)(C)c1ccc(OCC(=O)N/N=C/c2ccc(N3CCOCC3)cc2)cc1`: the “hERG current change (%, negative = inhibition) at 1uM” value is listed as -6.06%.
